Laboratory results taken from PubChem BioAssay AID360 (National Center for Advancing Translational Sciences (NCATS), 2006).
Hit rate of the full screen: of about 48,000 compounds, about 550 (1.1%) were called active. Inconclusive results (about 4%) are left out. No stated cut-off is given here; in the data, active means potency below about 15 µM; inconclusive means mostly about 16 µM to 33 µM; inactive means weaker than that. This is one part of the list.

Target: Lysosomal acid glucosylceramidase (Homo sapiens) (UniProt P04062)
Sequence of UniProt P04062 (P04062 whole entry, looked up): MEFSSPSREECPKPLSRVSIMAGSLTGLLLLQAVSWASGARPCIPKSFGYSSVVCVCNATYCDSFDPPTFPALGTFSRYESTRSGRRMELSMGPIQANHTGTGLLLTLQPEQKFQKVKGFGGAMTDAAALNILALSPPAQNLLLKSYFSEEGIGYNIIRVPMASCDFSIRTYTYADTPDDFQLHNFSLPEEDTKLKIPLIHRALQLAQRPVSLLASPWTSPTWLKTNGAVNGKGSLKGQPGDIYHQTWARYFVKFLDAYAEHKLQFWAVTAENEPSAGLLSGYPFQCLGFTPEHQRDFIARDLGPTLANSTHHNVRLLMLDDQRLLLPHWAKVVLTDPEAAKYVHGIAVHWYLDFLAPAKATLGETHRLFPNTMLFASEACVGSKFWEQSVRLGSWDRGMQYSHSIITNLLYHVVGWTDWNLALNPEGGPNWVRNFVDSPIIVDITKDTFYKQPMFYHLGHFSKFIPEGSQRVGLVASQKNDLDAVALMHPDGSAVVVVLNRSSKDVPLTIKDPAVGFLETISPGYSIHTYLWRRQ
Assay: Glucocerebrosidase;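 further: the screen sought inhibitors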
Details: purified enzyme, resorufin glucoside fluorescence (screen aimed at inhibitors), 20 min; series mostly up to 77 µM
Method in brief: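 Compounds titrated against 0.2 nM normal enzyme, 30 uM resorufin beta-D-glucopyranoside substrate, citrate/phosphate buffer with taurocholate and tween-20, pH 5.9. Reaction ran 20 min at room temperature; fluorescence (Ex 548/Em 600) gave AC50.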
Potency means the concentration at half of the fitted maximal effect.

Potency, inactive:
COc1ccc(S(=O)(=O)N(C)C2CCS(=O)(=O)C2)cc1OC (centres undefined) > 76.9 µM
COc1ccc2c(c1)N(C(=O)CSc1n[nH]c(C)n1)C(C)(C)C=C2C > 76.9 µM
CCOC(=O)CSc1nnc(CNC(=O)c2cccs2)n1-c1cc(C)ccc1C > 76.9 µM
CCCn1nnc(NC(=O)COc2cc(C)ccc2C(C)C)n1 > 76.9 µM
CCOC(=O)c1c(C)c(C(=O)NCCN2CCOCC2)c(C)n1CC > 76.9 µM
COc1cc2c(C(=O)N3CCCc4ccccc43)cn(C)c(=O)c2cc1OC > 76.9 µM
Cc1nc(SCC(=O)Nc2c(C)n(C)n(-c3ccccc3)c2=O)n[nH]1 > 76.9 µM
O=C(NCc1ccccc1)c1ccc(F)c(S(=O)(=O)N2CCOCC2)c1 > 76.9 µM
CCOC(=O)CC(NS(=O)(=O)c1ccc(NC(C)=O)cc1)c1ccc(OCC)cc1 (centres undefined) > 76.9 µM
CCOc1ccc(Cl)cc1S(=O)(=O)n1cnc2ccccc21 > 76.9 µM
COc1cc2c(cc1OC)CN(Cc1nc3ccsc3c(=O)[nH]1)CC2 > 76.9 µM
O=c1cc(NCc2ccccc2)c2ccccc2o1 > 76.9 µM
O=C(NCCc1ccccn1)c1ccc(COc2ccccc2)o1
Cc1ccc(/C=C/S(=O)(=O)N2CCC(C(=O)O)CC2)cc1 > 76.9 µM
Cc1nc(NC(=O)CSc2nc3cccnc3n2C2CCCCC2)sc1C > 76.9 µM
COC(=O)c1[nH]c2cccc(OC)c2c1NC(=O)CN1CCOCC1 > 76.9 µM
COc1ccc(N(C(=O)CNC(=O)c2ccco2)C(C(=O)NC2CCCCC2)c2ccco2)cc1 (centres undefined) > 76.9 µM
O=C(NCc1ccco1)c1cc2n(n1)C(C(F)(F)F)CC(c1ccc(F)cc1)N2 (centres undefined) > 76.9 µM
Cc1cc(NS(=O)(=O)c2ccc(-c3ccccc3)cc2)no1 > 76.9 µM
c1ccc2cc3[nH]c(CN4CCOCC4)nc3cc2c1 > 76.9 µM
CCC1SC2=NCN(c3ccccc3)CN2C1=O (centres undefined) > 76.9 µM
Cc1cc(C(=O)OCC(=O)NCCc2ccccc2)c(C)o1 > 76.9 µM
CC(C)(C)C(=O)CN1C(=O)C2(OCCO2)c2ccccc21 > 76.9 µM
Cc1cc(SCc2ccccc2)nc(=O)[nH]1 > 76.9 µM
NC(=O)CSc1nnc(-c2ccncc2)n1CCc1ccccc1 > 76.9 µM
S=c1[nH]nc(Cc2ccccc2)n1Cc1ccco1 > 76.9 µM
O=S(=O)(NCc1ccccc1Br)c1cccs1 > 76.9 µM
CCOc1cc(NC(=O)c2ccco2)c(OCC)cc1NC(=O)CCc1ccc(OC)cc1 > 76.9 µM
c1ccc2c(c1)oc1c(NCCCn3ccnc3)ncnc12 > 76.9 µM
CCCS(=O)(=O)N1CCN(C(=O)CCC2CCCC2)CC1 > 76.9 µM
CCCC(C(=O)NC1CCCCC1)N(CC1CCCO1)C(=O)CNS(=O)(=O)c1ccc(F)cc1 (centres undefined) > 76.9 µM
Nc1nc(C2C(=O)CCCC2=O)cs1 > 76.9 µM
Cc1nn(-c2ccccc2)c(C)c1C(=O)OCC(=O)NCc1ccco1 > 76.9 µM
COc1ccc(C)cc1S(=O)(=O)N1CCN(c2cccc(C(F)(F)F)c2)CC1 > 76.9 µM
Cc1c(Cl)cccc1Nc1nc(N)nc(CSc2ncccn2)n1 > 76.9 µM
Cc1cccc(NC(=O)CSc2nnc(-c3ccc(S(=O)(=O)N4CCOCC4)cc3)n2C)c1 > 76.9 µM
COCCCN1C(=O)C(O)=C(C(C)=O)C1c1cccc(F)c1 (centres undefined) > 76.9 µM
O=C(Cn1cnc2c(nnn2Cc2ccccc2F)c1=O)OCc1ccccc1 > 76.9 µM
CCCn1nnnc1SCC(=O)N(C(C)C)C(C)C > 76.9 µM
Cc1nc(Nc2ccc(F)cc2)[nH]c(=O)c1CCC(C)C
CCN(CC)C(=O)COc1ccc2oc(C)c(C(=O)OC)c2c1 > 76.9 µM
CCCCN1C(=O)c2ccccc2C1C(=O)NC1CCCC1 (centres undefined) > 76.9 µM
Cc1cc(NC(=O)COC(=O)c2cccc(S(=O)(=O)N3CCOCC3)c2)no1 > 76.9 µM
O=C(O)c1ccccc1S(=O)(=O)NCC(O)COC1CCCCC1 (centres undefined) > 76.9 µM
CCCCOc1ccc(C(=O)CCNC(C(=O)O)C(C)CC)cc1 (centres undefined) > 76.9 µM
CC(=O)Nc1ccc(S(=O)(=O)NCCSc2ccccn2)cc1 > 76.9 µM
O=C(c1coc2ccccc2c1=O)N1CCN(c2cccc(C(F)(F)F)c2)CC1 > 76.9 µM
CCOC(=O)C1=C(c2ccccc2)OC(N)=C(C#N)C1C(C)C (centres undefined) > 76.9 µM
CC(=O)n1nc2nc(C)cc(C)c2c1N > 76.9 µM
COc1ccccc1N1CCN(c2nc3ccccc3n3nnnc23)CC1 > 76.9 µM
CNc1oc(Cc2cccc3ccccc23)nc1C#N > 76.9 µM
O=C(NCCN1C(=O)CSC1=O)C1CC(=O)N(c2ccccc2)C1 (centres undefined) > 76.9 µM
Cc1nc2c(C(=O)NCc3ccc4c(c3)OCO4)c[nH]n2c(=O)c1Cc1ccccc1F > 76.9 µM
O=C(Oc1nsnc1N1CCOCC1)N(c1ccccc1)c1ccccc1 > 76.9 µM
Cc1cccc2cc(CN(CCN3CCOCC3)C(=O)Nc3ccccc3F)c(=O)[nH]c12 > 76.9 µM
COCCn1c(=S)[nH]c2cc(C(=O)NCC3CCCO3)ccc2c1=O (centres undefined) > 76.9 µM
COc1ccc(CNC(=O)C(C)OC(=O)c2cccn2C)cc1 (centres undefined) > 76.9 µM
Cc1ccccc1-n1c(SC(C)C(N)=O)nnc1-c1cccnc1 (centres undefined) > 76.9 µM
O=C(OCc1ccc(F)cc1Cl)c1ccccn1 > 76.9 µM
